PMC3672086, “TWEAK-Independent Fn14 Self-Association and NF-κB Activation Is Mediated by the C-Terminal Region of the Fn14 Cytoplasmic Domain” (PLoS ONE, 2013)
Results are given in words; binding and its absence hold for the method and conditions named. For part of these data: Binding seen in cells or lysates may run through a third protein. Some binding calls cover weakened binding; strength is not graded here. For part of these data: Tags and fused reporters may be left off the sequences shown.

Protein sequences, listed by entry. Tags and fused reporters are not part of them. Residues count along the entry.
UniProt O43508, residues 94-249: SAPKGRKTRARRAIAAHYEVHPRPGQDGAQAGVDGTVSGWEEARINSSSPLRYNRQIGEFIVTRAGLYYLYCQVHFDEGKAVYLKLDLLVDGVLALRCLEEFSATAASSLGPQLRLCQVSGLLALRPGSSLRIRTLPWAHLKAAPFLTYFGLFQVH

Experiments:
[1] = target: myc-tagged Fn14 with C122S substitution (human) (UniProt Q9NP84); test: SDS-PAGE under non-reducing conditions with Western blot; HNTG lysates of transfected HEK293 cells; no DTT in loading buffer, sample not heated; anti-myc blot; shows disulfide-linked dimers formed during lysis
[2] = target: T1, myc epitope-tagged full-length, wild-type human Fn14 (Fn14-FL) (human) (UniProt Q9NP84); test: condition: only lysis buffer supplemented with 10 mM iodoacetamide; SDS-PAGE under non-reducing conditions with Western blot; as a4 but cell lysis buffer supplemented with 10 mM iodoacetamide; anti-myc blot
T1 sequence: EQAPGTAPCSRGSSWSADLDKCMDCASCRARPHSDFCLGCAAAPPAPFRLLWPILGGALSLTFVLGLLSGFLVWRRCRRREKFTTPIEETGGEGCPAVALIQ

[3] = target: T2, myc epitope-tagged Fn14 extracellular domain deletion (Fn14-ΔEC) (human) (UniProt Q9NP84); test: far-Western, overlay or dot blot; ligand blot: lysates of transfected HEK293 cells run on SDS-PAGE under non-reducing conditions, PVDF membrane incubated with 100 ng/ml Fc-TWEAK, detected with HRP anti-human IgG/Fc; only the binder purified
T2 sequence: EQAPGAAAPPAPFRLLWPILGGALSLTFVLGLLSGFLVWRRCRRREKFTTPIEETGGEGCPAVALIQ

[4] = target: T1, myc epitope-tagged full-length, wild-type human Fn14 (Fn14-FL) (human); test: as above
[5] = target: T2, myc epitope-tagged Fn14 extracellular domain deletion (Fn14-ΔEC) (human); test: co-IP; HNTG lysates of HEK293/NF-κB-luc/Fn14-HA cells transfected with Fn14-myc plasmids; immobilized anti-myc antibody (ProFound c-Myc Tag IP/Co-IP kit), anti-HA Western blot
[6] = target: T1, myc epitope-tagged full-length, wild-type human Fn14 (Fn14-FL) (human); test: as above

Substance: myc-tagged Fn14 with C122S substitution (from UniProt Q9NP84 28-129) (receptor)
- binding [1]: no binding

Substance: myc epitope-tagged full-length, wild-type human Fn14 (Fn14-FL) (from UniProt Q9NP84 28-129) (receptor)
- binding [2]: no binding

Substance: recombinant human Fc-TWEAK fusion protein (from UniProt O43508 94-249) (Fc fusion)
- binding [3]: no binding (tested: 100 ng/ml)
- binding [4]: binds

Substance: HA epitope-tagged Fn14-FL (from UniProt Q9NP84 28-129) (receptor)
- binding [5]: binds
- binding [6]: binds
